The term Kd denotes the equilibrium constant for the complex coming apart. The low end stands for tighter binding, the high end for weaker binding. As a reminder, the koff is the rate constant with which the complex falls apart. The kon is the rate constant with which the complex forms. For orientation: EC50 means the concentration giving half of the maximal effect.

Residue numbers refer to the chain shown, from its start.

Experiment [1] addresses T1, HMGB1(red), fully reduced form of full-length HMGB1 (HMGB1C23hC45hC106h) (rat, UniProt P63159 1-215, all cysteines reduced (C23h, C45h, C106h)).
T1 construct: Produced by HMGBiotech; also called HMGB1(reduced); b-HMGB1(red)
T1 sequence: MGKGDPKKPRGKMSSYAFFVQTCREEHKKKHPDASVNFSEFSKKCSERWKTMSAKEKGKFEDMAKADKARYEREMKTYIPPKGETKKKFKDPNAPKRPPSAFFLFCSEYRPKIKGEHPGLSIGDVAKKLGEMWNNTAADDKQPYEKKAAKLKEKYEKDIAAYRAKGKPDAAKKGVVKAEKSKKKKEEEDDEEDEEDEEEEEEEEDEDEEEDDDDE
Briefly: SPR (Biacore 2000); Z-ABD captured on HSA, analyte injected (8.3 and 25 nM), 1.5 mM DTT; 1:1 Langmuir model. The procedure:
In a third experiment, ZA3975 was analyzed for binding to HMGB1(red) under reduced conditions (1.5 mM DTT included in the sample and running buffer). The ligand ZA3975 was diluted in HBS-EP buffer to a concentration of 100 nM and injected during 4 min. The analyte, HMGB1(red), was diluted in HBS-EP buffer to a concentration within the range of 8.3 to 675 nM and injected during 4 min, followed by dissociation in running buffer for 20 min. After dissociation, the surfaces were regenerated with three injections of 10 mM HCl.
(§1) Biacore kinetic and specificity analysis: The interactions of the A-box binding Z-ABD polypeptides ZA3812 (SEQ ID NO:35) and ZA3914 (SEQ ID NO:36) with four different HMGB1 variants were analyzed in a Biacore instrument by injecting various concentrations of HMGB1 variants over a surface containing ZA3812 and ZA3914, respectively, captured on immobilized HSA. […] In addition, the interaction of the B-box binding Z-ABD polypeptide ZA3975 (SEQ ID NO:37) was analyzed for binding to HMGB1(red) in the same manner.
On the technique in general: Surface plasmon resonance follows binding to a sensor surface in real time, without labels.

The target of experiment [2] is T2, human serum albumin (HSA) (human, UniProt P02768 25-609).
T2 construct: Immobilized on sensor chips to capture ABD (PP013) fusions
As to the kind of experiment: SPR (Biacore 2000); capture on immobilized HSA through the ABD moiety.

Experiment [3] addresses T3, boxA(disulfide), disulfide linked form of A-box domain of HMGB1 (human, UniProt P09429 1-89, disulfide C23-C45).
T3 construct: also called b-boxA(disulfide)
T3 sequence: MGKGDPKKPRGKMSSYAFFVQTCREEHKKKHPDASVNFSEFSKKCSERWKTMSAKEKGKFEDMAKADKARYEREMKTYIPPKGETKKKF
As to the kind of experiment: SPR (Biacore 2000); Z-ABD captured on HSA, analyte injected; 1:1 Langmuir model. The method, then: as §1

In experiment [4] the target is T1, HMGB1(red), fully reduced form of …. Briefly: SPR (Biacore 2000); Z-ABD captured on HSA, analyte injected, 2 mM DTT; 1:1 Langmuir model. The procedure:
as §1

Experiment [5] has as its target T4, GST-boxA(red), reduced form of A-box domain of HMGB1 with N-terminal GST tag (human, cysteines reduced).
T4 construct: Used biotinylated (b-GST-boxA(red)) in ELISA; also called b-GST-boxA(red)
The experiment is described as above. The procedure: as §1

Experiment [6] concerns the target T5, HMGB1(disulfide), disulfide linked form of full-length HMGB1 (HMGB1C23-C45C106h) (rat, UniProt P63159 1-215, disulfide C23-C45; C106 reduced).
T5 construct: unlabelled in Biacore and Attana; also called b-HMGB1(disulfide)
T5 sequence: T1 sequence
Briefly: SPR (Biacore 2000); Z-ABD captured on HSA, analyte injected; heterogeneous ligand parallel reactions model, KD1. The procedure:
(§2) Biacore kinetic and specificity analysis: Kinetic constants (kₐ and kd) and affinities (KD) for HMGB1(red), HMGB1(disulfide), boxA(disulfide) and GST-boxA(red) were determined for the A-box binding Z-ABD polypeptides ZA3812 (SEQ ID NO:35) and ZA3914 (SEQ ID NO:36) (see Example 2), as well as for the HMGB1(red) interaction with the B-box binding polypeptide ZA3975, using a Biacore 2000 instrument (GE Healthcare).
(§3) The experiment was performed as a capture assay, in which human serum albumin (HSA, Novozymes, cat. no. 230-005) was immobilized on the carboxylated dextran layer of one CM5 chip surface (GE Healthcare, cat. no. BR100012) to immobilization levels of approximately 3000 RU. The immobilization was performed using amine coupling chemistry according to the manufacturer's protocol and using HBS-EP (GE Healthcare, cat. no. BR100188) as running buffer. In a first set of experiments, Z-ABD polypeptides were analyzed under non-reducing conditions. One flow cell surface was activated and deactivated for use as blank during ligand and analyte injections. In the kinetic experiment, HBS-EP was used as running buffer and the flow rate was 30 μl/min. The ligand, i.e. the Z-ABD polypeptide, was diluted in HBS-EP buffer to a concentration of 30 nM and injected during 2 min. […]

In experiment [7] the target is T5, HMGB1(disulfide), disulfide linked form …. Briefly: SPR (Biacore 2000); Z-ABD captured on HSA, analyte injected; heterogeneous ligand parallel reactions model, KD2. The procedure:
as §1

For experiment [8] the target is unchanged. Briefly: SPR (Biacore 2000); Z-ABD captured on HSA, analyte injected; heterogeneous ligand parallel reactions model, ka1. The procedure: as §1
For experiment [9] the target is unchanged. Briefly: SPR (Biacore 2000); Z-ABD captured on HSA, analyte injected; heterogeneous ligand parallel reactions model, ka2. The procedure:
as §2, §3

For experiment [10] the target is unchanged. Briefly: SPR (Biacore 2000); Z-ABD captured on HSA, analyte injected; heterogeneous ligand parallel reactions model, kd1. The method, then:
as §1

Experiment [11] has the same target. As to the kind of experiment: SPR (Biacore 2000); Z-ABD captured on HSA, analyte injected; heterogeneous ligand parallel reactions model, kd2. The method, then:
as §1

For experiment [12], the target named is T6, GST-boxB(red), reduced form of B-box domain of HMGB1 with N-terminal GST tag (human, cysteine reduced).
T6 construct: Used biotinylated (b-GST-boxB(red)) in ELISA; also called b-GST-boxB(red)
Briefly: ELISA; periplasmic Z-ABD captured on anti-ABD antibody, 100 nM b-GST-boxB(red). The method, then:
ELISA screening of Z variants against reduced A-box and B-box: The binding of Z variants to HMGB1 was analyzed in ELISA assays. Half-area 96-well ELISA plates (Greiner, cat. no. 675061) were coated at 4° C. overnight with 2 μg/ml of an anti-ABD goat antibody (produced in-house) diluted in coating buffer (50 mM sodium carbonate, pH 9.6; Sigma, cat. no. C3041). The antibody solution was poured off and the wells were washed in water and blocked with 100 μl of PBSC (PBS supplemented with 0.5% casein; Sigma, cat. no. C8654) for 1-3 h at RT. The blocking solution was discarded and 50 μl periplasmic solutions, diluted 1:16 with PBST 0.05%, were added to the wells and incubated for 1.5 to 2.5 h at RT under slow agitation. As a negative control, periplasmic ABD was added. The supernatants were poured off and the wells were washed 4 times with PBST 0.05%. Then, 50 μl of either b-GST-boxA(red), at a concentration of 2 nM, or b-GST-boxB(red), at a concentration of 100 nM, in PBSC+1-2 mM DTT, was added to each well of A-box binding Z-variants or B-box binding Z-variant, respectively. The plates were incubated for 1 h at RT followed by washes as described above. […] The absorbance at 450 nm was measured using a multi-well plate reader, Victor3 (Perkin Elmer). […]

The target in experiment [13] is T6, GST-boxB(red), reduced form of B-box …. Briefly: ELISA titration; captured periplasmic Z-ABD, dilution series of b-GST-boxB(red). The method, then: EC50 analysis of Z variants: A sub-group of HMGB1 binding Z variants was subjected to an analysis of their response against a dilution series of b-GST-boxA(red) or b-GST-boxB(red) following the procedure described above. The Z variants ZH 01 (SEQ ID NO:1), ZH 02 (SEQ ID NO:2) and ZH 03 (SEQ ID NO:3) were diluted 1:16 in PBST 0.05% and target protein b-GST-boxA(red) was diluted in PBSC (PBS with 0.5% casein (Sigma cat no. C-8654)) with 0.5-1 mM DTT and added at a concentration of 1 μM and diluted stepwise 1:5 down to 60 μM. The Z variants ZH 30 (SEQ ID NO:30) and ZH 31 (SEQ ID NO:31) were diluted 1:16 in PBST 0.05% and b-GST-boxB(red) was diluted in PBSC without DTT present and added at a concentration of 7 μM and diluted stepwise 1:5 down to 90 μM. As a background control, all Z variants were also assayed with no target protein added. Periplasm containing the ABD moiety only was used as a negative control. […] Data were analyzed using GraphPad Prism 5 and non-linear regression, and EC50 values (the half maximal effective concentration) were calculated.
EC50 analysis of Z variants: A subset of Z variants having the highest ELISA values in the ELISA screening experiments described above was selected and subjected to a target titration in ELISA format. […] Obtained values were analyzed and EC50 values calculated (Table 5).

T2 sequence (P02768 25-609 limits assumed): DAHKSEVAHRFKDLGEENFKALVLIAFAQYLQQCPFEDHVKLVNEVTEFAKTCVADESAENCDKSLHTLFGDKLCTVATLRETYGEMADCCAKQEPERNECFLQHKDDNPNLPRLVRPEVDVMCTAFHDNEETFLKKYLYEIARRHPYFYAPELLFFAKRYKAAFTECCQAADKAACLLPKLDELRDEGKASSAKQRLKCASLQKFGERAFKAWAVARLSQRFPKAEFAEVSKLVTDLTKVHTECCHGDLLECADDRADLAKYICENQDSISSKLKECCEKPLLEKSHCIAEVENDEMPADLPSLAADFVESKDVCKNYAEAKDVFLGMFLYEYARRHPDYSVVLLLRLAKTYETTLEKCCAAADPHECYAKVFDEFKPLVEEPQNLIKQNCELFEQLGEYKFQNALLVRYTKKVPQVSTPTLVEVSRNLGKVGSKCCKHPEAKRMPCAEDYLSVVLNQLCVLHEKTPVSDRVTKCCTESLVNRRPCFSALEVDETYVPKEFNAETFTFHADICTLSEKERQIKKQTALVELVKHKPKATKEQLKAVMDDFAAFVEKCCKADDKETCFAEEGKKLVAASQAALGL

B1: ZA3975 ([ZH 32]-ASGS-PP013) (designed binder)
chain: AEAKYAKEAWLAEQEIWQLPNLTEAQFQAFILKLIDDPSQSSELLSEAKKLNDSQAPKASGSLAEAKEAANAELDSYGVSDFYKRLIDKAKTVEGVEALKDAILAALP
For B1, in [1], the Kd amounted to 0.11 nM, the koff turned out to be 0.00028 s⁻¹ and the kon was determined as 2.5e+06 M⁻¹ s⁻¹.

B2: ZA3914 ([ZH 28]-ASGS-PP013) (designed binder)
chain: AEAKYAKEAWQAMEEILWLPNLTNTQQLAFIYKLEDDPSQSSELLSEAKKLNDSQAPKASGSLAEAKEAANAELDSYGVSDFYKRLIDKAKTVEGVEALKDAILAALP
Consider B2, for which the binding result in experiment [2] is listed as “binds”. The dissociation constant Kd in experiment [3] amounted to 0.9 nM; in experiment [4] it was 6.1 nM; in [5] it was 0.8 nM; in experiment [6] it was 140 nM; in [7] it was 6.8 nM. Besides, the koff was 0.00015 s⁻¹ in experiment [3]; 0.0011 s⁻¹ in [4]; 0.0001 s⁻¹ in [5]; 0.025 s⁻¹ in experiment [10]; 9.5e-05 s⁻¹ in [11]. For the same molecule, the kon in [3] was 170000 M⁻¹ s⁻¹; in experiment [4] it was 180000 M⁻¹ s⁻¹; in [5] it was 120000 M⁻¹ s⁻¹; in experiment [8] it was 180000 M⁻¹ s⁻¹; in experiment [9], 14000 M⁻¹ s⁻¹.

B3: ZH 30 as periplasmic ABD fusion AQHDEALE-[ZH 30]-VDYV-[ABD]-YVPG (designed binder)
chain: AQHDEALEVDAKYAKEAWSAEQEIWDLPNLTLQQFQAFIMKLLDDPSQSSELLSEAKKLNDSQAPKVDYVLAEAKVLANRELDKYGVSDYYKNLINNAKTVEGVKALIDEILAALPYVPG
notes: domain: GA3
B3: the “response relative to the blank control” value in experiment [12] was ≥ 2.3 x blank control. Moreover, the midpoint of the response in experiment [13], the EC50, lay at 6.9 nM.

B4: ZH 31 as periplasmic ABD fusion AQHDEALE-[ZH 31]-VDYV-[ABD]-YVPG (designed binder)
chain: B3 chain with S19L, D26Q, L32E, Q33A, M40L, L43I
notes: domain: GA3
As for B4, in experiment [12], the “response relative to the blank control” value is ≥ 2.3 x blank control. In experiment [13], this molecule yielded an EC50 of 9.9 nM.
